Some of the results follow.
B1: PhoQ; a variant is named by its letters at X, in order, P23837 (parent)
chain: MKKLLRLFFPLSLRVRFLLATAAVVLVLSLAYGMVALIGYSVSFDKTTFRLLRGESNLFYTLAKWENNKLHVELPENIDKQSPTMTLIYDENGQLLWAQRDVPWLMKMIQPDWLKSNGFHEIEADVNDTSLLLSGDHSIQQQLQEVREDDDDAEMTHSVAVNVYPATSRMPKLTIVVVDTIPVELKSSYMVWSWFIYVLSANLLLVIPLLWVAAWWSLRPIEALAKEVRELEEHNRELLNPATTRELTSLVRNLNRLLKSERERYDKYRTTLTDLTHSLKTPLXXLQXXLRSLRSEKMSVSDAEPVMLEQISRISQQIGYYLHRASMRGGTLLSRELHPVAPLLDNLTSALNKVYQRKGVNISLDISPEISFVGEQNDFVEVMGNVLDNACKYCLEFVEISARQTDEHLYIVVEDDGPGIPLSKREVIFDRGQRVDTLRPGQGVGLAVAREITEQYEGKIVAGESMLGGARMEVIFGRQHSAPKDE

Variants of: B1
Experiment: enrichment ratio after two sorts for PhoP signalling (ratio (wild type AVST 3.29)); higher = more functional
Settings: with PhoP (E. coli)

| Variant | enrichment ratio |
| --- | --- |
| MNCC | 1.16 |
| KTNN | ≤ 0.25 |
| EQSW | ≤ 0.25 |
| KSCL | ≤ 0.25 |
| REHK | ≤ 0.25 |
| KAQK | ≤ 0.25 |
| NTDY | ≤ 0.25 |
| RTIL | ≤ 0.25 |
| QFHF | ≤ 0.25 |
| WPGK | ≤ 0.25 |
| QDCR | ≤ 0.25 |
| KPKS | ≤ 0.25 |
| FLGF | ≤ 0.25 |
| DQVP | ≤ 0.25 |
| NRDD | ≤ 0.25 |
| FQSS | ≤ 0.25 |
| HDWP | ≤ 0.25 |
| FCVE | ≤ 0.25 |
| RNRL | ≤ 0.25 |
| FCRW | ≤ 0.25 |
| IRIH | ≤ 0.25 |
| FNSH | ≤ 0.25 |
| SKDN | ≤ 0.25 |
| SDDC | ≤ 0.25 |
| YHCE | ≤ 0.25 |
| HCFK | ≤ 0.25 |

| Variant | enrichment ratio |
| --- | --- |
| KPRF | ≤ 0.25 |
| DYWA | ≤ 0.25 |
| IFCY | ≤ 0.25 |
| QCGN | ≤ 0.25 |
| MESR | ≤ 0.25 |
| QMKA | ≤ 0.25 |
| VTYC | ≤ 0.25 |
| FFST | ≤ 0.25 |
| QFAH | ≤ 0.25 |
| SPFS | ≤ 0.25 |
| PHDH | ≤ 0.25 |
| AVGF | 11 |
| THAM | 18.6 |
| IESH | ≤ 0.25 |
| CLAM | ≤ 0.25 |
| ARQW | ≤ 0.25 |
| TSVD | ≤ 0.25 |
| LLHE | ≤ 0.25 |
| HGIN | ≤ 0.25 |
| FGMY | ≤ 0.25 |
| VPMT | ≤ 0.25 |
| EYFG | ≤ 0.25 |
| VSIF | ≤ 0.25 |
| KWTF | ≤ 0.25 |
| VEWA | ≤ 0.25 |
| PVRI | ≤ 0.25 |

| Variant | enrichment ratio |
| --- | --- |
| VTTM | 16.4 |
| YTVW | ≤ 0.25 |
| HSQG | ≤ 0.25 |
| TPQY | ≤ 0.25 |
| ESLQ | ≤ 0.25 |
| AAME | 30.8 |
| TSCP | ≤ 0.25 |
| DGPR | ≤ 0.25 |
| SHKV | ≤ 0.25 |
| WAYT | ≤ 0.25 |
| QGIS | ≤ 0.25 |
| HKIQ | ≤ 0.25 |
| SWFA | ≤ 0.25 |
| HSSV | 0.35 |
| LWRC | ≤ 0.25 |
| YFQI | ≤ 0.25 |
| PRVL | ≤ 0.25 |
| KQMR | ≤ 0.25 |
| EALY | ≤ 0.25 |
| EFPY | ≤ 0.25 |
| GPRM | ≤ 0.25 |
| SELD | 14 |
| LPMW | ≤ 0.25 |
| YNHR | ≤ 0.25 |
| EGYW | ≤ 0.25 |
| EFFE | ≤ 0.25 |

| Variant | enrichment ratio |
| --- | --- |
| HRHF | ≤ 0.25 |
| NQIQ | ≤ 0.25 |
| NYVK | ≤ 0.25 |
| WPLP | ≤ 0.25 |
| WTRC | ≤ 0.25 |
| VSKV | ≤ 0.25 |
| SEAV | 13.6 |
| QQWL | 11.7 |
| RGLS | ≤ 0.25 |
| GYCW | ≤ 0.25 |
| YIMY | ≤ 0.25 |
| SNPW | ≤ 0.25 |
| FARL | ≤ 0.25 |
| YDAA | ≤ 0.25 |
| WLGR | ≤ 0.25 |
| YHIF | ≤ 0.25 |
| RSSH | ≤ 0.25 |
| MNLL | 12.4 |
| LPSS | ≤ 0.25 |
| TNKH | ≤ 0.25 |
| MMFW | ≤ 0.25 |
| YMRM | ≤ 0.25 |
| SESD | 9.24 |
| GHGW | ≤ 0.25 |
| PNML | ≤ 0.25 |
| VVMD | ≤ 0.25 |

| Variant | enrichment ratio |
| --- | --- |
| PGWF | ≤ 0.25 |
| QEIC | ≤ 0.25 |
| MKFA | ≤ 0.25 |
| FVDI | ≤ 0.25 |
| SFAQ | 0.83 |
| AAGY | ≤ 0.25 |
| VDNT | ≤ 0.25 |
| APCW | 4.08 |
| MLHM | 4.25 |
| QVCH | ≤ 0.25 |
| YKWG | ≤ 0.25 |
| KCDR | ≤ 0.25 |
| IWMP | ≤ 0.25 |
| VELQ | 3.33 |
| KGGN | ≤ 0.25 |
| QSSQ | 11.3 |
| SAWN | 4.82 |
| IPCW | ≤ 0.25 |
| DHPY | ≤ 0.25 |
| FQMH | ≤ 0.25 |
| WVRG | ≤ 0.25 |
| YRDQ | ≤ 0.25 |
| AGFT | ≤ 0.25 |
| YVYP | ≤ 0.25 |
| GRQQ | ≤ 0.25 |
| HQQI | ≤ 0.25 |

| Variant | enrichment ratio |
| --- | --- |
| LCFH | ≤ 0.25 |
| AVMR | 8.76 |
| SWNL | ≤ 0.25 |
| PKDD | ≤ 0.25 |
| ARIP | ≤ 0.25 |
| IYMI | ≤ 0.25 |
| ILVL | ≤ 0.25 |
| DQSG | ≤ 0.25 |
| MHYP | ≤ 0.25 |
| ADAR | ≤ 0.25 |
| PALV | ≤ 0.25 |
| IHSR | ≤ 0.25 |
| LKFW | ≤ 0.25 |
| VQEP | ≤ 0.25 |
| EYPD | ≤ 0.25 |
| LTDM | ≤ 0.25 |
| DADA | ≤ 0.25 |
| IVTY | ≤ 0.25 |
| QVTH | ≤ 0.25 |
| ALQM | ≤ 0.25 |
| HCPY | ≤ 0.25 |
| YILR | ≤ 0.25 |
| RDWD | ≤ 0.25 |
